Data as given in paper PMC12040169 (PLOS Biology, 2025).
Some of the results follow.

System: T1, C. trachomatis L2/434/Bu expressing GFP (CTL2-GFP)
T1 construct: L2/434/Bu GFP intracellular growth in HeLa cells
Set-up: species or system HeLa; C. trachomatis total inclusion area by high-content imaging, normalised to DMSO
Settings: total inclusion area; 28.5 h, 10 µM; inhibitor
Outline: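 Post-fluorescence-read fixation, DNA staining with Hoechst and high-content imaging; GFP inclusion area and number per well, and nuclei counts, used as proxies for bacterial growth and host viability.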

Row | SMILES | % of control remaining
1 | CC(C)(C)c1cn2c3ccccc3nc2n1CCN1CCOCC1 [CBK278252C] | 92.1133
2 | CCc1c(O)c2ccccc2n(Cc2ccccc2)c1=O [CBK219367] | 94.6534
3 | CCN(Cc1cccc(C(=O)O)c1)Cc1noc(C2CCC2)n1 [CBK307708] | 28.8941
4 | O=C(CSCc1c(Cl)cccc1Cl)Nc1cccc(-c2nnc(-c3ccccc3)o2)c1 [CBK267435] | 89.2095
5 | CCN(CC)C(=O)CN1C(=O)N2CCN=C2c2ccccc21 [CBK283944] | 97.7482
6 | Cc1cccnc1Nc1ccc(C2CCCN(C(=O)Cc3c[nH]c4ccccc34)C2)nc1 (stereo not shown) [CBK285968] | 112.388
7 | COc1ccc(C(=O)Nc2c(C)nn(-c3ccccc3)c2C)cc1S(=O)(=O)NC1CC1 [CBK297906] | 125.771
8 | CCc1nn(CC(=O)N2CCCC2)c(=O)c2cc3sc(C)cc3n12 [CBK284122] | 78.0595
9 | CN(C)CCN(C)C(=O)c1cc(-c2ccc(Cl)cc2)[nH]n1 [CBK115928] | 93.221
10 | Cc1cc(C)n(CCOc2nonc2N)n1 [CBK025818] | 96.3335
11 | Cc1cc(NS(=O)(=O)c2cc(C(F)(F)F)cc(C(F)(F)F)c2)n(C)n1 [CBK067261] | 90.0417
12 | CCC1C(=O)NCCN1C(=O)Cc1cccc2cccnc12 (stereo not shown) [CBK281728] | 102.964
13 | COc1ccc(S(=O)(=O)NC[C@H]2C[C@@H]3CC[N@]2C[C@@H]3CN2CCCCC2)cc1 [CBK288764] | 107.276
14 | COc1ccc(NC(=O)c2cc3nc(C)ccc3o2)cc1 [CBK287663] | 66.84
15 | CN(C)CCCn1c(=O)[nH]c2sc3c(c2c1=N)CC(C)(C)OC3 [CBK269103] | 84.9668
16 | c1cncc(Nc2cccc(-c3ccco3)n2)c1 [CBK037742] | 135.126
17 | Cc1ccc(Nc2nc(N3CCOCC3)nc3nccnc23)cc1 [CBK287664] | 76.1316
18 | COc1ccc(NC(=O)N[C@H]2C[C@H]3C(=O)N[C@H](Cc4ccccc4)C(=O)N3C2)cc1 [CBK289227] | 125.115
19 | Cn1cc(-c2nccnc2OCc2ccccn2)cn1 [CBK107067] | 98.9068
20 | CC(=O)N1CCC(C(=O)NCCc2cccc(C)c2)C1 (stereo not shown) [CBK281952] | 104.163
21 | CC1(O)CCN(Cc2nnnn2-c2ccc(S(C)(=O)=O)cc2)CC1 [CBK304166] | 29.1138
22 | Cc1ccc(-c2nnc(CNC(=O)c3cccc(Cl)c3)o2)s1 [CBK284646] | 102.092
23 | O=C(O)c1ccc(S(=O)(=O)c2ccc(O)cc2)cc1 [CBK261411] | 77.1654
24 | CCN(CC(=O)NCc1cccnc1)S(=O)(=O)c1ccc(F)cc1 [CBK269503] | 91.9693
25 | Cc1ccc(S(=O)(=O)N(CC(=O)NCc2ccco2)c2cccc(C)c2)cc1 [CBK264125] | 105.962
26 | Cc1cccc(C(=O)Oc2ccc(C(c3c(C)n[nH]c3O)c3c(C)n[nH]c3O)cc2)c1 [CBK264804] | 117.433

Row | SMILES | % of control remaining
27 | O=S(=O)(NC1c2cccc3cccc(c23)C1Sc1ncccn1)c1ccccc1 (stereo not shown) [CBK264706] | 98.4768
28 | Cc1nn(C)cc1-c1cncn1Cc1ccc2c(c1)CCCO2 [CBK281797] | 115.162
29 | Cc1nn(-c2ccccc2)c2c1C(C(=O)c1ccc3c(c1)OCO3)CC(=O)N2 (stereo not shown) [CBK294436] | 98.7991
30 | COc1ccc(C(NC(C)=O)c2nccc3cc(OC)c(OC)cc23)cc1OC (stereo not shown) [CBK270219] | 91.2844
31 | COc1cccc(Sc2cc(N3CCCC3)ncn2)c1 [CBK089533] | 96.5934
32 | CCN1C(=O)C2(CC(=O)N(CCOC)C2=O)c2cc(Cl)ccc21 (stereo not shown) [CBK075244] | 85.2815
33 | Cc1cc2c(o1)c1cnn(CC(=O)N3CCCCCC3)c(=O)c1n2C [CBK284219] | 84.5677
34 | Cc1ccccc1COc1cccc(Cl)c1Cl [CBK002607] | 35.998
35 | COc1cccc(C(=O)NCCC(=O)N2CCc3ccccc3C2)c1 [CBK307575] | 52.452
36 | Nc1ncc(-c2ccco2)nc1NC1CCOCC1 [CBK063806] | 107.57
37 | CC(CC(=O)O)CC(=O)N1CCN(c2ccccn2)CC1 (stereo not shown) [CBK286839] | 62.2184
38 | Cc1cc(CC(=O)N2CCN(c3ncccn3)CC2)on1 [CBK144507] | 81.8396
39 | Cc1nccn1CCNC(=O)c1c2c(nn1C)CCCC2 [CBK281857] | 81.0767
40 | CCC(=O)N1CCCC1c1nc(C)c2c(n1)N(Cc1ccc(F)cc1)CCC2 (stereo not shown) [CBK286247] | 108.373
41 | N/C(=N\OCC(=O)Nc1ccc(-n2cnnn2)cc1)c1nonc1N [CBK265331] | 94.4248
42 | CC(=O)NCC(=O)N1CCC2(CC1)CC(=O)c1cc(Br)ccc1O2 [CBK156447] | 83.8731
43 | O=C(c1cnc2ccccc2n1)N1CCC(F)CC1 [CBK200264] | 127.647
44 | CCN(CCO)c1ccc(Nc2nc(Br)cn3ccnc23)cc1 [CBK037475] | 92.9854
45 | O=C(O)c1cnc(NCC2CCCCCC2)[nH]c1=O [CBK023792] | 32.8474
46 | COc1ccc(-c2cc(C(=O)Nc3nc4ccc(S(C)(=O)=O)cc4s3)c3ccccc3n2)cc1 [CBK033551] | 102.209
47 | COc1ccc(-c2nc(NC(=O)C3CCC(OC)CC3)cnc2-c2ccc(F)cc2)cc1 (stereo not shown) [CBK037004] | 96.112
48 | O=C(CSc1nc[nH]n1)Nc1ccc(-c2nc3ccccc3s2)cc1 [CBK267146] | 108.93
49 | COCCn1c(CO)nnc1[C@H]1C[C@H](NC(=O)c2ccc(F)cc2F)C1 [CBK306665] | 12.3139
50 | O=C(c1cccc(C(F)(F)F)c1)N1CCN(C(=O)c2ccc3c(c2)CCC3)CC1 [CBK298300] | 150.436
51 | CCC(C(=O)Nc1nccs1)N(C)Cc1c(C)nn(C(C)C)c1C (stereo not shown) [CBK307402] | 58.5218
52 | COCOc1ccc(-c2ncc(OC)nc2NC(=O)c2cc3ccccc3s2)cc1 [CBK145250] | 107.441
